# In the supplement of paper PMC3334620:
# Over roughly 33,000 sequences, “E-score (-0.5 to 0.5)” has its median near -0.035; the highest 2% begin near 0.35. This is one part of the list.
# Biological target: T1, Pdr3 (UniProt P33200)
# T1 sequence: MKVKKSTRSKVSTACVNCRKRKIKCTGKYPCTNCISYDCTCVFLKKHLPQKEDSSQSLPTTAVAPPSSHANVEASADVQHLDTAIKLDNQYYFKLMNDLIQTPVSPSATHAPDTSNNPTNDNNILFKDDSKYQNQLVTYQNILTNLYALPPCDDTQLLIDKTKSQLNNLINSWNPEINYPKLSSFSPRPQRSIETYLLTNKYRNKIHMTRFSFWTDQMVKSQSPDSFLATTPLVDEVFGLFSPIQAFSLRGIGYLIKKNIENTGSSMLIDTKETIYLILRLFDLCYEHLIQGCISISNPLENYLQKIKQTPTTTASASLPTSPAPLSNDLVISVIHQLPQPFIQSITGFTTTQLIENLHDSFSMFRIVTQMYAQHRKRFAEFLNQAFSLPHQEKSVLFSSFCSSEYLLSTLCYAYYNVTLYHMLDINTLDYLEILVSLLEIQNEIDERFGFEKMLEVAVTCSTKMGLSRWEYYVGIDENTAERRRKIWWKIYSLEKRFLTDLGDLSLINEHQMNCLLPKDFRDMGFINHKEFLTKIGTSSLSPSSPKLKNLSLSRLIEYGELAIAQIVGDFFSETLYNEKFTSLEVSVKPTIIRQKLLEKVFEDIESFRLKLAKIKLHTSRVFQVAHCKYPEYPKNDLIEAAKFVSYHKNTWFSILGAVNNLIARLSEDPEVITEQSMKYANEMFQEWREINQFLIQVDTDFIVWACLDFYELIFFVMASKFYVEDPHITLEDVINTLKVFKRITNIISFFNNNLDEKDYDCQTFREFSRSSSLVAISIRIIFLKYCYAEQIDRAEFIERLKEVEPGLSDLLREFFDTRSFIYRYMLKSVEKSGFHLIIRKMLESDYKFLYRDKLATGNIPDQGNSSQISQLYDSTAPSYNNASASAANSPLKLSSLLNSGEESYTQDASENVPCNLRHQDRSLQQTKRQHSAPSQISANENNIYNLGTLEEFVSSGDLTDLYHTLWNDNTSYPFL
# Assay: PBM E-score (8-mer binding enrichment) (E-score (-0.5 to 0.5)); higher = stronger / more preferred TF binding; most listed sequences are background and not binding sites
# Details: protein concentration: 200 nM; construct: GST-full length
# In short: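 For each ungapped eight-base word taken together with its reverse complement, the Universal PBM Analysis Suite assigned an E-score. Binding data came from GST-tagged yeast transcription factors, applied at about 100-200 nM, on universal all-10-mer Agilent arrays made double-stranded by primer extension. Fluorescent anti-GST marked bound protein, and scans were normalised with masliner.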
row,Sequence,PBM E-score
1,CTACATAA,-0.236
2,GTTGCAAC,0.00318
3,TATAACCA,-0.0221
4,CTAAAGTC,-0.143
5,CCTGGAGC,-0.231
6,ACTATTAC,0.0813
7,TAATTAGA,0.0699
8,AATGCCGG,0.308
9,ACACGTTC,-0.0023
10,TGACATCA,-0.0444
11,GTCAGCAA,-0.201
12,ACCATCGA,-0.164
13,AGCCATTA,-0.00061
14,AAGAAACC,0.0731
15,AAAAATAT,0.0611
16,GCGATCAC,-0.0291
17,AAGAGCTA,-0.145
18,CTTGGCGA,-0.246
19,AGACCAAC,-0.112
20,CAAGGATG,-0.163
21,GGCTCAAA,-0.0861
22,CCAACCTC,-3e-05
23,ACTCGCCC,0.00575
24,AGTATCTC,0.12
25,AAAACATA,-0.0915

row,Sequence,PBM E-score
1,GACGGATC,0.313
2,AATACGTG,-0.0764
3,GACTTTGC,0.00883
4,CCATTCCC,0.101
5,CGTGAACG,-0.107
6,CTAGGATA,-0.105
7,ACGCTATG,-0.187
8,AAAACGTA,-0.164
9,CGTTCACC,-0.0232
10,ATTGATTG,0.196
11,GCTTTAAC,-0.0882
12,ATAAATTG,0.213
13,ATCCAGGG,-0.183
14,AGTCCGGG,0.301
15,CGTCGCCA,-0.134
16,CTGCCTAC,-0.0485
17,GGACCCAA,0.0523
18,GCTATTCA,0.0956
19,TAACCGTA,-0.057
20,CCCGCGCG,0.382
21,GAGAGAAA,-0.101
22,GCCAGCTA,-0.138
23,CGGGTGAA,0.279
24,GGCCGGAC,0.216
25,AAGCTACC,0.115

row,Sequence,PBM E-score
1,TACTCGCA,0.0266
2,ACACTCAA,0.0057
3,GTTACGGA,0.266
4,GGCCCGAC,0.119
5,AACTCTTA,-0.0657
6,GACATCGA,0.00193
7,CGCACCGC,0.162
8,ATCGAGGA,0.00127
9,ATGTATTA,-0.096
10,GCTATACC,0.0194
11,AGCACCTG,-0.241
12,CGCTCACC,0.0448
13,ACCTGCCC,0.18
14,AATGCCAA,-0.0918
15,AACGGTCC,0.139
16,AAACAAGC,-0.0204
17,AAAGCAGT,0.0133
18,GAGACAAC,0.00582
19,ACTCAGAA,-0.0574
20,AGGTTAAT,-0.0492
21,CTTATCTC,-0.0426
22,AACGAGGG,-0.175
23,CAGACCTG,-0.103
24,GAGTGTCC,0.11
25,AATAACCT,-0.127

row,Sequence,PBM E-score
1,AGGCATAC,-0.0587
2,ACATTCAA,0.0599
3,AGCTTACC,-0.0699
4,GAGGTGAC,0.11
5,CCATCATA,-0.0567
6,CGGAATGC,0.434
7,ACGTCACG,-0.0656
8,AATGGCCC,-0.177
9,ACTCTCTG,-0.204
10,ATTTGTTC,0.221
11,CGCACGCC,0.0867
12,GGTCGTAA,-0.0241
13,AAGGTGCG,-0.0376
14,CCGGGACA,0.376
15,GCTGTACC,-0.00444
16,AGGATTAG,-0.213
17,CTCTTTTC,-0.18
18,CTGAGAAA,-0.236
19,GACGTGTA,-0.126
20,AACACGAA,0.0946
21,CTCCCGGA,0.386
22,AAGATGCG,0.0797
23,AGAGGACT,-0.288
24,AGGTTTAC,-0.267
25,ATCCGATA,0.298

row,Sequence,PBM E-score
1,GGGTATCA,-0.0831
2,CACGACAA,-0.102
3,CTCCCCTC,0.0991
4,AAGTACAA,-0.14
5,GCTGAAAA,0.0779
6,AACACCAC,0.0781
7,AGTAGTCA,-0.155
8,CGGATCCA,0.413
9,GAAGGCTA,-0.142
10,CTATGAAC,-0.156
11,ATGCTTGA,-0.05
12,ATCAGCAA,0.0503
13,AAAGACCC,-0.00528
14,ATGCGCGA,0.0846
15,TCGATCCA,-0.12
16,ACTGGAGA,-0.17
17,ATCACAAG,-0.094
18,ACGGCTAC,0.0619
19,CAGTTAAG,0.0368
20,CCGGACCC,0.379
21,AAGGACGC,-0.0165
22,ATGAAAAA,0.0268
23,AGTTTCAG,-0.0792
24,ACCGGTCT,-0.0977
25,AAGTGGGT,-0.0079

row,Sequence,PBM E-score
1,AAGCGCGT,-0.113
2,AAGAGTAG,-0.102
3,ACATTCGC,0.0323
4,ACCAACGT,-0.171
5,CGTGAAGC,-0.0378
6,TGAGGAAA,-0.0997
7,GTAGGCTA,-0.259
8,ATACAACA,-0.145
9,ACAAACGG,0.247
10,AGAGCTCC,0.101
11,ACTCACTA,-0.107
12,ATCGGCAG,0.0695
13,GACAACGA,0.0946
14,ATCAATAC,-0.0781
15,GAGATGCC,0.0537
16,CCCTTATC,-0.145
17,TAGGTCGA,0.0176
18,CTGTGAAC,-0.142
19,CTTTAGCC,0.0828
20,GGCCCCTA,-0.0294
21,ATAGTGGA,0.0309
22,CATCGTGA,0.00952
23,CGTTCGTC,0.101
24,AGCTTCAC,-0.165
25,CTTATTCC,0.189

row,Sequence,PBM E-score
1,CGGCGACC,0.276
2,TACCTGGA,0.0517
3,AAAAGATC,-0.0361
4,TGAAGTAA,-0.0771
5,ACTTAACC,-0.166
6,GAGCTCCC,0.0427
7,ATCAGGAG,-0.0399
8,AGCGCCAC,-0.132
9,GTAGATCA,0.188
10,GAGATAAC,0.0104
11,GTAAGTAA,-0.134
12,CGAGTAGC,0.0654
13,ATACAGAC,0.0563
14,ATAGAGAC,-0.153
15,AAGTGGAC,-0.083
16,ATAGTGAG,-0.186
17,CACATGCA,-0.0842
18,CCCTGTCG,-0.0711
19,AGCCTAAA,-0.206
20,ATCAGGTA,-0.0279
21,GTAATCTA,0.0675
22,CACCATGG,-0.266
23,ACGCGCTC,0.0762
24,ATCTACAA,-0.234
25,ACATGCGC,0.0468

row,Sequence,PBM E-score
1,AAGGGGAC,0.00657
2,TGCTATAA,-0.00165
3,AATAAATT,0.0655
4,AGCCCGGG,0.383
5,AATCGCCC,0.0276
6,AGGATCAT,-0.157
7,GCGGGGTA,0.233
8,TCGGACGA,0.233
9,ACTAAAAT,0.0253
10,AGCAACTG,-0.055
11,CTATTCCA,0.13
12,AATCCAGA,0.127
13,ATGCGGCG,0.172
14,GTCCTGAA,-0.00529
15,AACTCGTG,0.0222
16,AAACTGTT,0.062
17,CTGGACAC,-0.172
18,AACATTCT,-0.189
19,CAGAAGAA,-0.231
20,TAGCAAGA,-0.149
21,GCTACTAC,0.146
22,ATTTGGAC,-0.0704
23,CGGTCATA,0.0842
24,AAGCACGT,-0.0941
25,TACAATGA,-0.255

row,Sequence,PBM E-score
1,GGTGAGGA,-0.0196
2,CTAAATAA,-0.143
3,GCAATCAA,-0.0663
4,CCGCGACA,0.201
5,ATTACCCC,0.213
6,CTGTACAC,-0.201
7,ACGTTCAC,-0.184
8,ACTATAGC,-0.092
9,CGGAAATC,0.407
10,CTCGACGC,0.0906
11,TAAGATTA,-0.146
12,CCAGATGG,-0.0553
13,CCATCTAC,-0.0638
14,AGGTCACG,-0.0472
15,GGTAGGAC,-0.0863
16,ATATTAGC,-0.00055
17,ATAGCGGC,0.186
18,CCTAGCAC,-0.178
19,AATGACAC,-0.0767
